Data taken from patent US20250163161A1.

Legend:
[1] = biological target: PD-L1 on cells (A431; cells of the Promega PD-L1 blockade assay kit) (UniProt Q9NZQ7); assay: cell-based or functional assay
[2] = biological target: programmed death-ligand 1 (PD-L1), soluble, as used in BLI (UniProt Q9NZQ7); assay: BLI

EC50, cell-based PD-1/PD-L1 blockage assay (luciferase activity) [1]: 8.6 nM
B1: ICI2_H2 (HCP-LCE heavy chain combined with an unrelated light chain) (antibody, part only; not given: Unrelated light chain, part only)
heavy: AVTLDESGGGLQTPGGALSLVCKASGFDFSSYDMAWVRQAPGKGLEWVAGIKSNGPWTNYGAAVKGRATISRDNGQSTVRLQLNNLRAEDTAIYYCAKPGAGYVGWDAAGTIDSWGHGTEVIVSSASTKGPSVFPLAPSSKSTSGGTAALGCLVKDYFPEPVTVSWNSGALTSGVHTFPAVLQSSGLYSLSSVVTVPSSSLGTQTYICNVNHKPSNTKVDKRV[left out - human IgG1 Fc with changes]
Kd [2]: 28.8 nM
koff [2]: 0.0035 s⁻¹
kon [2]: 122000 M⁻¹ s⁻¹
